Values after ≈ are worked out from the molar mass of the structure shown. One block for each compound: values may come before it.
Legend:
Assay in all cases: ≥ marks a high value that may be exact or a test limit, other limits are often not marked
[1] = test system: Escherichia coli DH5alpha
[2] = test system: Staphylococcus xylosus
[3] = test system: Escherichia coli
[4] = test system: Listeria innocua
[5] = test system: Micrococcus luteus A270
[6] = test system: Salmonella enterica subsp. enterica serovar Enteritidis
[7] = test system: Bacillus cereus
[8] = test system: Leuconostoc lactis
[9] = test system: Micrococcus luteus
[10] = test system: Pasteurella multocida
[11] = test system: Staphylococcus aureus
[12] = test system: Staphylococcus epidermidis
[13] = test system: Streptococcus uberis
[14] = test system: Bacillus subtilis
[15] = test system: Klebsiella pneumoniae
[16] = test system: Proteus mirabilis
[17] = test system: Pseudomonas aeruginosa
[18] = test system: Salmonella typhimurium
[19] = test system: Shigella dysenteriae
[20] = test system: Candida albicans NCPF 1467
[21] = test system: Escherichia coli NCTC 10418
[22] = test system: Staphylococcus aureus NCTC 10788

MIC [1]: ≥ 64 µM
MIC [2]: ≥ 64 µM
SMILES: CC[C@H](C)[C@H](N)C(=O)N[C@@H](CC(C)C)C(=O)N[C@H](C(=O)N[C@@H](CC(C)C)C(=O)N[C@H](C(=O)N[C@@H](CC(C)C)C(=O)N[C@H](C(=O)N[C@@H](CC(C)C)C(=O)N[C@@H](CCCCN)C(=O)N[C@@H](CCCN=C(N)N)C(=O)N[C@@H](CCCCN)C(=O)O)[C@@H](C)CC)[C@@H](C)CC)[C@@H](C)CC [ILILILILKRK]

MIC [3]: 54 µM (≈ 121 µg/mL)
MIC [4]: ≥ 54 µM
MIC [5]: ≥ 100 µM
MIC [6]: 27 µM (≈ 60.4 µg/mL)
SMILES: CC(C)C[C@H](NC(=O)[C@@H](N)C(C)C)C(=O)N[C@@H](CO)C(=O)N[C@@H](C)C(=O)N[C@@H](C)C(=O)N[C@@H](CC(=O)O)C(=O)N[C@@H](CCCCN)C(=O)NCC(=O)N[C@@H](CC(N)=O)C(=O)N[C@H](C(=O)N[C@@H](CCCCN)C(=O)N[C@@H](C)C(=O)N[C@@H](C)C(=O)N[C@@H](Cc1c[nH]c2ccccc12)C(=O)NCC(=O)N[C@@H](CCCCN)C(=O)N[C@H](C(=O)NCC(=O)NCC(=O)N[C@@H](Cc1cnc[nH]1)C(=O)N[C@@H](C)C(=O)N[C@@H](C)C(=O)N[C@@H](CCC(=O)O)C(=O)O)C(C)C)C(C)C [VLSAADKGNVKAAWGKVGGHAAE]

MIC [7]: ≥ 39.3 µM
MIC [3]: > 39.3 µM
MIC [8]: 4.91 µM (≈ 12.5 µg/mL)
MIC [4]: 19.6 µM (≈ 50 µg/mL)
MIC [9]: 9.82 µM (≈ 25 µg/mL)
MIC [10]: 19.6 µM (≈ 50 µg/mL)
MIC [11]: 13.9 µM (≈ 35.3 µg/mL)
MIC [12]: ≥ 39.3 µM
MIC [13]: 19.6 µM (≈ 50 µg/mL)
SMILES: CC[C@H](C)[C@H](NC(=O)[C@@H](NC(=O)[C@@H]1CCCN1C(=O)[C@@H](NC(=O)[C@@H](NC(=O)[C@H](Cc1cnc[nH]1)NC(=O)CNC(=O)[C@H](CC(C)C)NC(=O)[C@@H](NC(=O)[C@H](Cc1cnc[nH]1)NC(=O)[C@H](CCCCN)NC(=O)[C@H](C)NC(=O)[C@@H](NC(=O)[C@H](CO)NC(=O)CNC(=O)[C@H](CC(C)C)NC(=O)[C@@H](NC(=O)[C@H](CO)NC(=O)[C@H](CC(C)C)NC(=O)[C@H](CC(C)C)NC(=O)CN)C(C)C)C(C)C)C(C)C)C(C)C)C(C)C)C(C)C)C(=O)N[C@@H](C)C(=O)N[C@@H](CCC(=O)O)C(=O)N[C@@H](Cc1cnc[nH]1)C(=O)N[C@@H](CC(C)C)C(N)=O [GLLSVLGSVAKHVLGHVVPVIAEHL]

MIC [14]: ≥ 149 µM
MIC [3]: > 149 µM
MIC [15]: > 149 µM
MIC [9]: ≥ 149 µM
MIC [16]: ≥ 149 µM
MIC [17]: > 149 µM
MIC [18]: ≥ 149 µM
MIC [19]: ≥ 149 µM
MIC [11]: > 149 µM
MIC [12]: ≥ 149 µM
SMILES: CC(C)C[C@H](NC(=O)[C@H](C)NC(=O)CNC(=O)[C@@H](N)CC(C)C)C(=O)N[C@@H](Cc1ccccc1)C(=O)N[C@@H](CCCCN)C(=O)N[C@H](C(=O)N[C@@H](C)C(=O)N[C@@H](CO)C(=O)N[C@@H](CCCCN)C(=O)N[C@H](C(=O)N[C@@H](CC(C)C)C(=O)N1CCC[C@H]1C(=O)O)C(C)C)C(C)C [LGALFKVASKVLP]

MIC [7]: 20 µM (≈ 50 µg/mL)
MIC [3]: > 39.9 µM
MIC [8]: 4.99 µM (≈ 12.5 µg/mL)
MIC [4]: 20 µM (≈ 50 µg/mL)
MIC [9]: 4.99 µM (≈ 12.5 µg/mL)
MIC [10]: ≥ 39.9 µM
MIC [11]: 14.1 µM (≈ 35.3 µg/mL)
MIC [12]: ≥ 39.9 µM
MIC [13]: 4.99 µM (≈ 12.5 µg/mL)
SMILES: CC[C@H](C)[C@H](NC(=O)[C@@H](NC(=O)CNC(=O)[C@@H](NC(=O)[C@@H](NC(=O)[C@H](Cc1cnc[nH]1)NC(=O)CNC(=O)[C@H](CC(C)C)NC(=O)[C@@H](NC(=O)[C@H](Cc1cnc[nH]1)NC(=O)[C@H](CCCCN)NC(=O)[C@H](C)NC(=O)[C@@H](NC(=O)[C@H](CO)NC(=O)CNC(=O)[C@H](CC(C)C)NC(=O)[C@@H](NC(=O)[C@H](CO)NC(=O)[C@H](CC(C)C)NC(=O)[C@H](CC(C)C)NC(=O)CN)C(C)C)C(C)C)C(C)C)C(C)C)C(C)C)C(C)C)C(=O)N[C@@H](C)C(=O)N[C@@H](CCC(=O)O)C(=O)N[C@@H](Cc1cnc[nH]1)C(=O)N[C@@H](CC(C)C)C(N)=O [GLLSVLGSVAKHVLGHVVGVIAEHL]

MIC [20]: ≥ 64 µM
MIC [21]: ≥ 120 µM
MIC [22]: ≥ 48 µM
SMILES: CC[C@H](C)[C@H](NC(=O)[C@H](C)NC(=O)[C@H](Cc1cnc[nH]1)NC(=O)[C@@H]1CCCN1C(=O)[C@@H](NC(=O)[C@H](CC(C)C)NC(=O)[C@H](CO)NC(=O)[C@H](Cc1ccccc1)NC(=O)[C@@H]1CCCN1C(=O)[C@@H](N)Cc1ccccc1)[C@@H](C)CC)C(=O)NCC(=O)NCC(=O)N[C@@H](CC(C)C)C(=O)N[C@H](C(=O)N[C@@H](CO)C(=O)N[C@@H](C)C(=O)N[C@H](C(=O)N[C@@H](CCCCN)C(=O)O)[C@@H](C)CC)[C@@H](C)CC [FPFSLIPHAIGGLISAIK]

MIC [20]: 27.2 µM (≈ 32 µg/mL)
MIC [21]: ≥ 109 µM
MIC [22]: ≥ 434 µM
SMILES: CC[C@H](C)[C@H](NC(=O)[C@H](C)NC(=O)[C@@H]1CCCN1C(=O)[C@H](CCCN=C(N)N)NC(=O)[C@@H](N)CC(C)C)C(=O)N[C@@H](CC(C)C)C(=O)N[C@H](C(=O)N[C@@H](CCCN=C(N)N)C(=O)N[C@H](C(=O)N[C@@H](CCCCN)C(N)=O)[C@@H](C)CC)C(C)C [LRPAILVRIK]

Source: DBAASP
